# Source: the supplement of paper PMC8728848
# About 410 targets per protein were measured; listed, in parts, are those with the strongest signals and a random draw of the rest.
# How the values were obtained:
# Assay in all cases: glycan array binding signal (z-score within array); higher = stronger binding
# Settings in all cases: glycan notation: IUPAC condensed, linker removed
# [1] = test system: Gal(b1-4)GlcNAc(b1-2)[Gal(b1-4)GlcNAc(b1-6)]Man(a1-6)[Gal(b1-4)GlcNAc(b1-2)Man(a1-3)]Man(b1-4)GlcNAc(b1-4)[Fuc(a1-6)]GlcNAc
# Procedure, shortened: (§1)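 The binding signal is a Z-score computed within each array. Data were drawn from 3228 arrays in the Consortium for Functional Glycomics database, restricted to those with a known protein sequence. Scores were averaged over arrays of the same protein sequence at different concentrations or buffers, and over linkers, and negative values can be taken as non-binding.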
# [2] = test system: Gal(b1-4)GlcNAc(b1-2)[Gal(b1-4)GlcNAc(b1-6)]Man(a1-6)[GlcNAc(b1-4)][Gal(b1-4)GlcNAc(b1-2)[Gal(b1-4)GlcNAc(b1-4)]Man(a1-3)]Man(b1-4)GlcNAc(b1-4)[Fuc(a1-6)]GlcNAc
# Procedure, shortened: as §1
# [3] = test system: Gal(b1-4)GlcNAc(b1-3)Gal(b1-4)GlcNAc(b1-2)[Gal(b1-4)GlcNAc(b1-3)Gal(b1-4)GlcNAc(b1-6)]Man(a1-6)[Gal(b1-4)GlcNAc(b1-3)Gal(b1-4)GlcNAc(b1-2)Man(a1-3)]Man(b1-4)GlcNAc(b1-4)[Fuc(a1-6)]GlcNAc
# Procedure, shortened: as §1
# [4] = test system: Gal(b1-4)GlcNAc(b1-3)Gal(b1-4)GlcNAc(b1-3)Gal(b1-4)GlcNAc(b1-3)Gal(b1-4)GlcNAc(b1-3)Gal(b1-4)GlcNAc(b1-2)Man(a1-3)[Gal(b1-4)GlcNAc(b1-3)Gal(b1-4)GlcNAc(b1-3)Gal(b1-4)GlcNAc(b1-3)Gal(b1-4)GlcNAc(b1-3)Gal(b1-4)GlcNAc(b1-2)Man(a1-6)]Man(b1-4)GlcNAc(b1-4)[Fuc(a1-6)]GlcNAc
# Procedure, shortened: as §1
# [5] = test system: Gal(b1-4)GlcNAc(b1-3)Gal(b1-4)GlcNAc(b1-3)Gal(b1-4)GlcNAc(b1-3)Gal(b1-4)GlcNAc(b1-3)Gal(b1-4)GlcNAc(b1-3)Gal(b1-4)GlcNAc(b1-2)Man(a1-3)[Gal(b1-4)GlcNAc(b1-3)Gal(b1-4)GlcNAc(b1-3)Gal(b1-4)GlcNAc(b1-3)Gal(b1-4)GlcNAc(b1-3)Gal(b1-4)GlcNAc(b1-3)Gal(b1-4)GlcNAc(b1-2)Man(a1-6)]Man(b1-4)GlcNAc(b1-4)GlcNAc
# Procedure, shortened: as §1
# [6] = test system: Gal(b1-4)GlcNAc(b1-3)Gal(b1-3)GalNAc
# Procedure, shortened: as §1
# [7] = test system: Gal(b1-4)GlcNAc(b1-3)Gal(b1-4)GlcNAc(b1-2)[Gal(b1-4)GlcNAc(b1-3)Gal(b1-4)GlcNAc(b1-6)]Man(a1-6)[Gal(b1-4)GlcNAc(b1-3)Gal(b1-4)GlcNAc(b1-2)Man(a1-3)]Man(b1-4)GlcNAc(b1-4)GlcNAc
# Procedure, shortened: as §1
# [8] = test system: Gal(b1-4)GlcNAc(b1-2)[Gal(b1-4)GlcNAc(b1-6)]Man(a1-6)[GlcNAc(b1-4)][Gal(b1-4)GlcNAc(b1-2)Man(a1-3)]Man(b1-4)GlcNAc(b1-4)GlcNAc
# Procedure, shortened: as §1
# [9] = test system: Gal(b1-4)GlcNAc(b1-3)Gal(b1-4)GlcNAc(b1-3)Gal(b1-4)GlcNAc(b1-2)Man(a1-3)[Gal(b1-4)GlcNAc(b1-3)Gal(b1-4)GlcNAc(b1-3)Gal(b1-4)GlcNAc(b1-2)Man(a1-6)]Man(b1-4)GlcNAc(b1-4)GlcNAc
# Procedure, shortened: as §1
# [10] = test system: Gal(b1-4)GlcNAc(b1-3)Gal(b1-4)GlcNAc(b1-3)Gal(b1-4)GlcNAc(b1-3)Gal(b1-4)GlcNAc(b1-2)Man(a1-3)[Gal(b1-4)GlcNAc(b1-3)Gal(b1-4)GlcNAc(b1-3)Gal(b1-4)GlcNAc(b1-3)Gal(b1-4)GlcNAc(b1-2)Man(a1-6)]Man(b1-4)GlcNAc(b1-4)GlcNAc
# Procedure, shortened: as §1
# [11] = test system: Gal(b1-4)GlcNAc(b1-3)GalNAc
# Procedure, shortened: as §1
# [12] = test system: Gal(b1-4)GlcNAc(b1-3)Gal(b1-3)GlcNAc
# Procedure, shortened: as §1
# [13] = test system: Gal(b1-4)GlcNAc(b1-3)Gal(b1-4)GlcNAc(b1-3)Gal(b1-4)GlcNAc(b1-2)Man(a1-3)[Gal(b1-4)GlcNAc(b1-3)Gal(b1-4)GlcNAc(b1-3)Gal(b1-4)GlcNAc(b1-2)Man(a1-6)]Man(b1-4)GlcNAc(b1-4)[Fuc(a1-6)]GlcNAc
# Procedure, shortened: as §1
# [14] = test system: Gal(b1-4)GlcNAc(b1-3)Gal(b1-4)GlcNAc(b1-3)Gal(b1-4)GlcNAc(b1-3)Gal(b1-4)GlcNAc(b1-2)Man(a1-3)[Gal(b1-4)GlcNAc(b1-3)Gal(b1-4)GlcNAc(b1-3)Gal(b1-4)GlcNAc(b1-3)Gal(b1-4)GlcNAc(b1-2)Man(a1-6)]Man(b1-4)GlcNAc(b1-4)[Fuc(a1-6)]GlcNAc
# Procedure, shortened: as §1
# [15] = test system: Gal(b1-4)GlcNAc(b1-3)Gal(b1-4)GlcNAc(b1-3)Gal(b1-4)GlcNAc(b1-3)Gal(b1-4)GlcNAc(b1-3)Gal(b1-4)GlcNAc(b1-2)Man(a1-3)[Gal(b1-4)GlcNAc(b1-3)Gal(b1-4)GlcNAc(b1-3)Gal(b1-4)GlcNAc(b1-3)Gal(b1-4)GlcNAc(b1-3)Gal(b1-4)GlcNAc(b1-2)Man(a1-6)]Man(b1-4)GlcNAc(b1-4)GlcNAc
# Procedure, shortened: as §1
# [16] = test system: Gal(b1-4)GlcNAc(b1-3)Gal(b1-4)GlcNAc(b1-3)Gal(b1-4)GlcNAc
# Procedure, shortened: as §1
# [17] = test system: Gal(b1-4)GlcNAc(b1-3)Gal(b1-4)GlcNAc
# Procedure, shortened: as §1
# [18] = test system: Gal(b1-4)GlcNAc(b1-3)[Gal(b1-4)GlcNAc(b1-6)]Gal(b1-4)GlcNAc
# Procedure, shortened: as §1
# [19] = test system: Gal(b1-4)GlcNAc(b1-3)[GlcNAc(b1-6)]Gal(b1-4)GlcNAc
# Procedure, shortened: as §1
substance,measurement,setting,value
Meso764 (Homo sapiens) (chain not printed),glycan array binding signal (z-score),[1],1.8
same,glycan array binding signal (z-score),[2],-0.128
same,glycan array binding signal (z-score),[3],1.84
same,glycan array binding signal (z-score),[4],4.03
same,glycan array binding signal (z-score),[5],1.71
Thrombomodulin Extracellular (Homo sapiens) (chain not printed),glycan array binding signal (z-score),[1],6.14
same,glycan array binding signal (z-score),[2],-0.229
same,glycan array binding signal (z-score),[6],-0.661
same,glycan array binding signal (z-score),[7],2.43
FGF2 (chain not printed),glycan array binding signal (z-score),[8],0.058
same,glycan array binding signal (z-score),[7],2.51
same,glycan array binding signal (z-score),[9],0.973
same,glycan array binding signal (z-score),[10],-0.547
same,glycan array binding signal (z-score),[11],-0.316
M-Ficolin G221F (Homo sapiens) (chain not printed),glycan array binding signal (z-score),[12],-0.177
Gal 3 (Homo sapiens) (chain not printed),glycan array binding signal (z-score),[13],3.35
same,glycan array binding signal (z-score),[10],3.83
same,glycan array binding signal (z-score),[14],3.46
same,glycan array binding signal (z-score),[15],7.49
same,glycan array binding signal (z-score),[4],5.01
same,glycan array binding signal (z-score),[5],3.79
same,glycan array binding signal (z-score),[16],3.18
Angiogenin (Homo sapiens) (chain not printed),glycan array binding signal (z-score),[16],0.397
Gal 8-short (Homo sapiens) (chain not printed),glycan array binding signal (z-score),[17],1.73
Galectin-8 C-terminal CRD (Homo sapiens) (chain not printed),glycan array binding signal (z-score),[11],-0.342
L-Ficolin (Homo sapiens) (chain not printed),glycan array binding signal (z-score),[18],-0.453
MBP (Homo sapiens) (chain not printed),glycan array binding signal (z-score),[19],-0.502
